Among all 2,800 compounds or so, fewer than 10 were called active. Calls follow the shape of the dose curve; as a rule, active = well fitted curve in the direction sought with a large enough effect; inconclusive = small, poorly fitted or top-dose-only effect, or another doubt; inactive = no such curve, though single readings can be large or run the other way. The list shows a part of the results.
target: Metallo-beta-lactamase type 2 (Klebsiella pneumoniae) (UniProt C7C422); test: qHTS to identify inhibitors of the New Delhi Metallo-beta-lactamase (NDM): Meropenem screen against the machine-based learning selections.; also: % of control where 0% means no effect; details: Purified NDM-1, meropenem hydrolysis, absorbance 300 nm; at 38.4 µM (top of the series) unless noted
In short: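 Hydrolysis by 2 nM NDM-1 was followed by absorbance after >30 min compound preincubation in HEPES pH 7.0 buffer with 1 uM Zn2SO4. For nitrocefin (16.7 uM, 15 min, 485 nm) and meropenem (50 uM, 30 min, 300 nm), each substrate ran on separate plates.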

Chain of UniProt C7C422 (C7C422 whole entry, looked up): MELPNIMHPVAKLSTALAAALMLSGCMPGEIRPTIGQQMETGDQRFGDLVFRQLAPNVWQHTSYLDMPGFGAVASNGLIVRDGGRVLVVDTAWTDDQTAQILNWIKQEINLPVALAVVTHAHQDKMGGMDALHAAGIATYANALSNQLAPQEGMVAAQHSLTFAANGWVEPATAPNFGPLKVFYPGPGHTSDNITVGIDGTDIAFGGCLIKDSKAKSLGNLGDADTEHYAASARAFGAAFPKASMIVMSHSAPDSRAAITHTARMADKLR

SMILES | activity change, negative = inhibition
COCCN1C[C@H]2CN(C(=O)C3CC3)CCN2C1=O | inactive: -0.0977% [at 76.7 µM]
CC(=O)N1CCN([C@H]2[C@@H]3OC[C@@H](O3)[C@@H](NC(=O)Nc3cccc(C(F)(F)F)c3)[C@@H]2O)CC1 | inactive: 0.574%
CNc1ccc(-c2noc([C@@H]3CCCN3Cc3cccnc3)n2)cn1 | inactive: 9.9% [at 57.5 µM]
CCCCC(=O)Nc1ccc(C)cc1NC(=O)COc1cccnc1 | inactive: -1.33%
CS(=O)(=O)NC[C@H]1O[C@@H](CC(=O)N2CCN(c3ccccn3)CC2)[C@H](O)[C@@H]1O | inactive: 0.305% [at 57.5 µM]
COc1ccccc1CN1CCC2(CC1)CC(C(=O)O)N(C(C)=O)C2 (stereo not drawn) | inactive: 2.43%
COCCn1c(C)cnc1CCNC(=O)c1cc(C)nn1C | inactive: 46.6%
CC(=O)N1CCC(N[C@H]2C[C@@H](Cc3cc(CN(C)C)on3)C2(C)C)CC1 | inactive: 0.329% [at 57.5 µM]
Cc1cccc(-c2noc([C@@H]3Cc4nc[nH]c4CN3C(=O)COCC(=O)O)n2)c1 | inactive: 48.8% [at 57.5 µM]
CC1=C[C@@H](CNCc2ccncc2)[C@H](C(C)C)C[C@H]1Cc1nnc(-c2ccc(C)cc2)o1 | inactive: 0.0973% [at 57.5 µM]
COc1ccc(NC(=O)N[C@H]2CO[C@H]3[C@@H]2OC[C@@H]3n2cc(CN(C)Cc3ccccc3)nn2)cc1 | inactive: -1.08%
Cc1ccc2c(c1)N1C(=O)OC[C@@H]1CCN(C(=O)NC1CCCCC1)C2 | inactive: 1.66% [at 57.5 µM]
CC(Cn1cncn1)NC(=O)c1ccc(S(=O)(=O)NCCO)cc1 (stereo not drawn) | inactive: -0.61%
CC(=O)N1CCC(N[C@H]2CC(C)(C)[C@@H]3C[C@@](C)(O)CC[C@]23CCC(=O)NCCN2CCOCC2)CC1 | inactive: -0.0233%
CC(C)N1C[C@H](O)C[C@H]1c1nc(-c2ccc(C(F)(F)F)cc2)no1 | inactive: 4.8% [at 57.5 µM]
COCC(=O)Nc1ccc([C@H]2OCC(=O)N(CC(C)C)[C@@H]2CO)cc1 | inactive: 0.753% [at 57.5 µM]
Cc1ccn2c(C(=O)N3CCCC(c4[nH]ncc4-c4ccccc4)C3)nnc2n1 (stereo not drawn) | inactive: 3.57%
OC(c1cccc(C(F)(F)F)c1)c1nc(Nc2ccc(F)cc2F)n[nH]1 (stereo not drawn) | inactive: -1.49% [at 57.5 µM]
COc1ccc(-n2nc(C)c([C@@H]3C=C[C@@H](NS(=O)(=O)c4cccs4)C3)c2C)cc1 | inactive: 1.5% [at 57.5 µM]
COc1cccc(-c2ccc(CN3CC4CCC(C3)N4c3ccc(C(F)(F)F)cc3)cc2)c1 | inactive: 1.66%
c1ccc(CN2CCNc3cnc(Nc4ccc(N5CCOCC5)cc4)cc3C2)cc1 | inactive: 13% [at 57.5 µM]
O=C1CC(C(=O)O)C2(CCN(c3cc(C(=O)O)c4ccccc4n3)CC2)N1 (stereo not drawn) | inactive: 8.2%
COc1ccc(NC(=O)NCC2CCCN(C(C)C)C2)cc1OC (stereo not drawn) | inactive: -0.512%
NC1(Cc2cc(CN3CCN(c4ccccc4)CC3)on2)COC1 | inactive: 0.883% [at 57.5 µM]

SMILES | activity change, negative = inhibition
COC(=O)[C@@H]1Cc2ncn(C(C)C)c2CN1S(=O)(=O)c1ccc(F)cc1 | inactive: 12.5% [at 57.5 µM]
Cc1nc2c(C(=O)N3CCC(c4cc(CC(=O)O)[nH]n4)CC3)cccc2[nH]1 | inactive: 67.5%
Clc1ccccc1-c1cc(C2CCN(Cc3cc4n(n3)CCNC4)CC2)[nH]n1 | inactive: 45.2%
O=C(O)c1ccc(CC2CCN(Cc3ccncc3)C2)cc1 (stereo not drawn) | inactive: -0.495%
CCCn1cc(S(=O)(=O)N2C[C@H](C3CC3)[C@@H](N)C2)cn1 | inactive: 0.478%
O=C(CC[C@@H]1CNC(=O)[C@@H]2C[C@H](NC(=O)Nc3ccsc3)CN12)NCc1cccs1 | inactive: 1.27%
CCOc1ccc(NC(=O)Cn2c(N3CCc4ccccc4C3)nc(C)cc2=O)cc1 | inactive: 3.94%
OCC1CN(Cc2cccnc2)CCC12CCN(Cc1cccc(O)c1)CC2 (stereo not drawn) | inactive: 3.66%
Cc1cc(C(=O)NCCc2csc(-c3cccnc3)n2)cc(S(N)(=O)=O)c1C | inactive: 2.03%
COc1ccc(C(=O)N[C@@H]2CCC[C@@H]2C(=O)N2CCN(C(=O)c3ccco3)CC2)cn1 | inactive: -0.601%
CCCN(C)c1nccnc1OC1CCN(C(=O)c2ccc(OC)nc2OC)C1 (stereo not drawn) | inactive: 14.2%
COCCOc1cc(-c2noc([C@@H]3CCCN3Cc3ccc(C(=O)O)cc3)n2)ccn1 | inactive: 43.6% [at 57.5 µM]
O=C(NCc1ccccc1F)C1CCN(C(=O)c2ncn3c2COC(c2ccccc2)C3)CC1 (stereo not drawn) | inactive: -0.0731%
CC(=O)N1CCN(C(=O)C[C@@H]2CCNC[C@@H]2Cc2cc(-c3ccccc3)on2)CC1 | inactive: 0.0659% [at 57.5 µM]
O=C(O)C[C@@H]1CCN(C(=O)C2CCCCC2)C[C@@H]1CCN1CCOCC1 | inactive: 12.8% [at 57.5 µM]
Cc1cc(CNC(=O)[C@@H]2CCC[C@@H](NCc3nccs3)CN(C)C(=O)C2)no1 | inactive: 0.105% [at 57.5 µM]
O=C(Cc1ccccc1O)NCc1cccnc1Oc1ccc(F)cc1F | inactive: 0.857%
CN1CCN(S(=O)(=O)c2cccc(C(=O)N3C[C@@H]4CCN[C@@H]4C3)c2)CC1 | inactive: 11.5%
COc1ccc(CCC(=O)N2CCC(N3CC4CC(C3)[C@H]3CCCC(=O)N3C4)CC2)cc1 (stereo partly drawn) | inactive: -0.571%
CC1=C[C@@H](CNCc2ccncc2)[C@H](C(C)C)C[C@H]1Cc1nnc(-c2ccc([N+](=O)[O-])cc2)o1 | inactive: -3.24%
COc1ccc(CN2CCNc3cc(-c4ccccc4)ncc3C2)cc1O | inactive: -3.28% [at 57.5 µM]
CCc1noc([C@@H]2CC(F)(F)CN2C(=O)c2ccoc2C)n1 | inactive: 16.8%
O=C(NCc1nc(-c2cnccn2)n[nH]1)[C@H]1CNC[C@H](C(=O)N2CCOCC2)C1 | inactive: 28.1%
Nc1ccsc1C(=O)N[C@H](Cc1ccncc1)C1CC(O)C1 (stereo partly drawn) | inactive: 49.4%
